# Test results: the supplement of paper PMC8728848
# The list shows a part of the results.
# B1: PVL (Psathyrella velutina), Q309D1_9AGAR (protein)
# chain: MSVVVISQALPVPTRIPGVADLVGFGNGGVYIIRNSLLIQVVKVINNFGYDAGGWRVEKHVRLLADTTGDNQPDVVGFGENGVWISTNNGNNTFVDPPKMVLANFAYAAGGWRVEKHIRFMADLRKTGRADIVGFGDGGIYISRNNGGGQFAPAQLALNNFGYAQGWRLDRHLRFLADVTGDGLLDVVGFGENQVYIARNSGNGTFQPAQAVVNNFCIGAGGWTISAHPRVVADLTGDRKADILGFGVAGVYTSLNNGNGTFGAVNLVLKDFGVNSGWRVEKHVRCVSSLTNKKVGDIIGFGDAGVYVALNNGNGTFGPVKRVIDNFGYNQGWRVDKHPRFVVDLTGDGCADIVGFGENSVWACMNKGDGTFGPIMKLIDDMTVSKGWTLQKTVRYAANLYL
# Key:
# Test in all cases: glycan array binding signal (z-score within array); higher = stronger binding
# Details in all cases: glycan notation: IUPAC condensed, linker removed
# [1] = target: Neu5Ac(a2-6)Gal(b1-4)GlcNAc(b1-2)Man(a1-3)[Man(a1-6)]Man(b1-4)GlcNAc(b1-4)GlcNAc
# Outline: (§1)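 Glycan array binding is given as a within-array Z-score, which can be read as non-binding when negative. The arrays, 3228 of them, came from the Consortium for Functional Glycomics database and were retained only where the protein sequence was available. Z-scores were averaged across arrays of the same protein sequence at different concentrations or buffers and across linkers.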
# [2] = target: Neu5Ac(a2-6)Gal(b1-4)GlcNAc(b1-2)Man(a1-3)[Neu5Ac(a2-3)Gal(b1-4)GlcNAc(b1-2)Man(a1-6)]Man(b1-4)GlcNAc(b1-4)GlcNAc
# Outline: as §1
# [3] = target: Neu5Ac(a2-6)Gal(b1-4)GlcNAc(b1-2)Man(a1-3)[Neu5Ac(a2-6)Gal(b1-4)GlcNAc(b1-2)Man(a1-6)]Man(b1-4)GlcNAc(b1-4)GlcNAc
# Outline: as §1
# [4] = target: Neu5Ac(a2-6)Gal(b1-4)GlcNAc(b1-2)Man(a1-3)[Neu5Ac(a2-6)Gal(b1-4)GlcNAc(b1-2)Man(a1-6)]Man(b1-4)GlcNAc(b1-4)[Fuc(a1-6)]GlcNAc
# Outline: as §1
# [5] = target: Neu5Ac(a2-6)Gal(b1-4)GlcNAc(b1-2)Man(a1-6)Man(b1-4)GlcNAc(b1-4)GlcNAc
# Outline: as §1
# [6] = target: Neu5Ac(a2-6)Gal(b1-4)GlcNAc(b1-2)Man(a1-6)[Gal(b1-4)GlcNAc(b1-2)Man(a1-3)]Man(b1-4)GlcNAc(b1-4)GlcNAc
# Outline: as §1
# [7] = target: Neu5Ac(a2-6)Gal(b1-4)GlcNAc(b1-2)Man(a1-6)[GlcNAc(b1-2)Man(a1-3)]Man(b1-4)GlcNAc(b1-4)GlcNAc
# Outline: as §1
# [8] = target: Neu5Ac(a2-6)Gal(b1-4)GlcNAc(b1-2)Man(a1-6)[Man(a1-3)]Man(b1-4)GlcNAc(b1-4)GlcNAc
# Outline: as §1
# [9] = target: Neu5Ac(a2-6)Gal(b1-4)GlcNAc(b1-2)[Neu5Ac(a2-6)Gal(b1-4)GlcNAc(b1-4)]Man(a1-3)[GlcNAc(b1-4)][Neu5Ac(a2-6)Gal(b1-4)GlcNAc(b1-2)[Neu5Ac(a2-6)Gal(b1-4)GlcNAc(b1-6)]Man(a1-6)]Man(b1-4)GlcNAc(b1-4)GlcNAc
# Outline: as §1
# [10] = target: Neu5Ac(a2-6)Gal(b1-4)GlcNAc(b1-2)[Neu5Ac(a2-6)Gal(b1-4)GlcNAc(b1-4)]Man(a1-3)[GlcNAc(b1-4)][Neu5Ac(a2-6)Gal(b1-4)GlcNAc(b1-4)Man(a1-6)]Man(b1-4)GlcNAc(b1-4)GlcNAc
# Outline: as §1
# [11] = target: Neu5Ac(a2-6)Gal(b1-4)GlcNAc(b1-2)[Neu5Ac(a2-6)Gal(b1-4)GlcNAc(b1-6)]Man(a1-6)[Neu5Ac(a2-6)Gal(b1-4)GlcNAc(b1-2)Man(a1-3)][GlcNAc(b1-4)]Man(b1-4)GlcNAc(b1-4)GlcNAc
# Outline: as §1
# [12] = target: Neu5Ac(a2-6)Gal(b1-4)GlcNAc(b1-3)Gal(b1-3)GlcNAc
# Outline: as §1
# [13] = target: Neu5Ac(a2-6)Gal(b1-4)GlcNAc(b1-3)Gal(b1-4)GlcNAc
# Outline: as §1
# [14] = target: Neu5Ac(a2-6)Gal(b1-4)GlcNAc(b1-3)Gal(b1-4)GlcNAc(b1-2)Man(a1-3)[Neu5Ac(a2-6)Gal(b1-4)GlcNAc(b1-3)Gal(b1-4)GlcNAc(b1-2)Man(a1-6)]GalNAc
# Outline: as §1
# [15] = target: Neu5Ac(a2-6)Gal(b1-4)GlcNAc(b1-3)Gal(b1-4)GlcNAc(b1-3)Gal(b1-4)GlcNAc
# Outline: as §1
# [16] = target: Neu5Ac(a2-6)Gal(b1-4)GlcNAc(b1-3)Gal(b1-4)GlcNAc(b1-3)Gal(b1-4)GlcNAc(b1-2)Man(a1-3)[Neu5Ac(a2-6)Gal(b1-4)GlcNAc(b1-3)Gal(b1-4)GlcNAc(b1-3)Gal(b1-4)GlcNAc(b1-2)Man(a1-6)]GalNAc
# Outline: as §1
# [17] = target: Neu5Ac(a2-6)Gal(b1-4)GlcNAc(b1-3)Gal(b1-4)GlcNAc(b1-3)GalNAc
# Outline: as §1
# [18] = target: Neu5Ac(a2-6)Gal(b1-4)GlcNAc(b1-3)Gal(b1-4)GlcNAc(b1-3)[Neu5Ac(a2-6)Gal(b1-4)GlcNAc(b1-3)Gal(b1-4)GlcNAc(b1-6)]GalNAc
# Outline: as §1
# [19] = target: Neu5Ac(a2-6)Gal(b1-4)GlcNAc(b1-3)Gal(b1-4)GlcNAc(b1-6)[Gal(b1-3)]GalNAc
# Outline: as §1
# [20] = target: Neu5Ac(a2-6)Gal(b1-4)GlcNAc(b1-3)Gal(b1-4)[Fuc(a1-3)]GlcNAc(b1-3)Gal(b1-4)[Fuc(a1-3)]GlcNAc
# Outline: as §1
# [21] = target: Neu5Ac(a2-6)Gal(b1-4)GlcNAc(b1-3)GalNAc
# Outline: as §1
# [22] = target: Neu5Ac(a2-6)Gal(b1-4)GlcNAc(b1-3)[Neu5Ac(a2-6)Gal(b1-4)GlcNAc(b1-6)]GalNAc
# Outline: as §1
# [23] = target: Neu5Ac(a2-6)Gal(b1-4)GlcNAc(b1-6)GalNAc
# Outline: as §1
# [24] = target: Neu5Ac(a2-6)Gal(b1-4)GlcNAc(b1-6)[Gal(b1-3)GlcNAc(b1-3)]Gal(b1-4)Glc
# Outline: as §1
# [25] = target: Neu5Ac(a2-6)Gal(b1-4)GlcNAc(b1-6)[Gal(b1-3)]GalNAc
# Outline: as §1
# [26] = target: Neu5Ac(a2-6)Gal(b1-4)GlcNAc6S
# Outline: as §1
# [27] = target: Neu5Ac(a2-6)GalNAc
# Outline: as §1
# [28] = target: Neu5Ac(a2-6)GalNAc(b1-4)GlcNAc
# Outline: as §1
# [29] = target: Neu5Ac(a2-6)GalNAc(b1-4)GlcNAc6S
# Outline: as §1
# [30] = target: Neu5Ac(a2-6)GlcNAc(b1-4)GlcNAc
# Outline: as §1
# [31] = target: Neu5Ac(a2-6)GlcNAc(b1-4)GlcNAc(b1-4)GlcNAc
# Outline: as §1
binder,measurement,setting,value
B1,glycan array binding signal (z-score),[1],-0.349
same,glycan array binding signal (z-score),[2],-0.264
same,glycan array binding signal (z-score),[3],-0.173
same,glycan array binding signal (z-score),[4],-0.139
same,glycan array binding signal (z-score),[5],-0.345
same,glycan array binding signal (z-score),[6],-0.327
same,glycan array binding signal (z-score),[7],0.631
same,glycan array binding signal (z-score),[8],-0.345
same,glycan array binding signal (z-score),[9],-0.342
same,glycan array binding signal (z-score),[10],-0.345
same,glycan array binding signal (z-score),[11],-0.358
same,glycan array binding signal (z-score),[12],-0.297
same,glycan array binding signal (z-score),[13],0.179
same,glycan array binding signal (z-score),[14],-0.116
same,glycan array binding signal (z-score),[15],0.208
same,glycan array binding signal (z-score),[16],0.259
same,glycan array binding signal (z-score),[17],-0.351
same,glycan array binding signal (z-score),[18],-0.064
same,glycan array binding signal (z-score),[19],-0.251
same,glycan array binding signal (z-score),[20],-0.396
same,glycan array binding signal (z-score),[21],-0.353
same,glycan array binding signal (z-score),[22],-0.06
same,glycan array binding signal (z-score),[23],-0.362
same,glycan array binding signal (z-score),[24],-0.361
same,glycan array binding signal (z-score),[25],-0.355
same,glycan array binding signal (z-score),[26],-0.314
same,glycan array binding signal (z-score),[27],-0.168
same,glycan array binding signal (z-score),[28],-0.306
same,glycan array binding signal (z-score),[29],-0.368
same,glycan array binding signal (z-score),[30],1.12
same,glycan array binding signal (z-score),[31],0.469
